Experiments:
[1] = system: cabbage Alternaria sooty spot fungi (Alternaia brassicicola); assay: Test Example C: cabbage Alternaria sooty spot, spray treatment of cabbage plants; type: in vivo; conditions: for Test C control value: cabbage Alternaria sooty spot; for Test C control value class (cabbage Alternaria sooty spot): control value=100{1-(n/3)}
From the text: [Test Example C] Cabbage Alternaria Sooty Spot
Test plants (cabbage variety: Shikidori) were cultivated until the cotyledons extended after the sowing of seeds.
<Control Value> Control value=100{1−(n/3)}

[2] = system: wheat brown rust fungi (Puccinia recondita); assay: Test Example E: wheat brown rust, spray treatment of wheat plants; type: in vivo; conditions: for Test E control value: wheat brown rust; for Test E control value class (wheat brown rust): control value=100{1-(n/3)}
[3] = system: gray mold fungi (Botrytis cinerea); assay: Test Example B: tomato gray mold, spray treatment of tomato plants; conditions: for Test B control value: tomato gray mold; for Test B control value class (tomato gray mold): control value=100{1-(n/3)}
[4] = system: grape downy mildew fungus (Plasmopara viticola); assay: Test Example G: grape downy mildew, spray treatment of grape plants; conditions: for Test G control value: grape downy mildew, 7 to 10 days after inoculation; for Test G control value class (grape downy mildew): 2.5 ml/pot, grape Neomuscat, 7 to 10 days from inoculation
[5] = system: barley powdery mildew fungi (Blumeria graminis f. sp. hordei); assay: Test Example D: barley powdery mildew, spray treatment of barley plants; conditions: for Test D control value: barley powdery mildew; for Test D control value class (barley powdery mildew): control value=100{1-(n/3)}
[6] = spray treatment of cabbage plants
[7] = spray treatment of wheat plants
[8] = spray treatment of tomato plants
[9] = spray treatment of barley plants

| SMILES | Test C control value ([1]; spray treatment) | Test E control value ([2]; spray treatment) | Test B control value ([3]; spray treatment) | Test G control value ([4]; 250 ppm spray) | Test D control value ([5]; spray treatment) | other results |
| --- | --- | --- | --- | --- | --- | --- |
| CCc1ccccc1-n1cc(C)c(=O)c(C)c1-c1c(F)cccc1F [Compound 485] | H (H shows the control value of more than 50%) | H (H shows the control value of more than 50%) | H (H shows the control value of more than 50%) | L (L shows the control value of 50% or less) | L (L shows the control value of 50% or less) | – |
| Cc1ccccc1-n1cc(C)c(=O)c(C)c1-c1ccc(S(C)(=O)=O)cc1 [Compound 263] | – | – | – | – | – | Test C control value [1, 6]: L (L shows the control value of 50% or less); Test E control value [2, 7]: L (L shows the control value of 50% or less); Test B control value [3, 8]: H (H shows the control value of more than 50%); Test G control value ([4]; 250 ppm spray (2.5 ml/pot)): L (L shows the control value of 50% or less); Test D control value [5, 9]: L (L shows the control value of 50% or less) |
| Cc1cccc(C)c1-n1cc(Br)c(=O)c(Br)c1-c1ccccc1 [Compound 451] | L (L shows the control value of 50% or less) | L (L shows the control value of 50% or less) | L (L shows the control value of 50% or less) | L (L shows the control value of 50% or less) | L (L shows the control value of 50% or less) | – |
| CCc1c(-c2c(F)cc(F)cc2F)n(-c2ccccc2C)cc(C(C)=O)c1=O [Compound 327] | – | – | – | – | – | Test C control value [1, 6]: H (H shows the control value of more than 50%); Test E control value [2, 7]: H (H shows the control value of more than 50%); Test B control value [3, 8]: H (H shows the control value of more than 50%); Test G control value ([4]; 250 ppm spray (2.5 ml/pot)): H (H shows the control value of more than 50%); Test D control value [5, 9]: L (L shows the control value of 50% or less) |
| O=c1c(Cl)cn(CCc2ccccc2)c(-c2c(F)cc(F)cc2F)c1Br [Compound 95] | – | – | – | – | – | Test C control value class (cabbage Alternaria sooty spot) [1, 6]: L (L shows the control value of 50% or less); Test E control value class (wheat brown rust) [2, 7]: H (H shows the control value of more than 50%); Test B control value class (tomato gray mold) [3, 8]: L (L shows the control value of 50% or less); Test G control value class (grape downy mildew) ([4]; 250 ppm spray): L (L shows the control value of 50% or less); Test D control value class (barley powdery mildew) [5, 9]: L (L shows the control value of 50% or less) |
| Cc1c(Cl)cccc1-n1cc(C)c(=O)c(C)c1-c1c(F)cc(F)cc1F [Compound 461] | H (H shows the control value of more than 50%) | H (H shows the control value of more than 50%) | H (H shows the control value of more than 50%) | L (L shows the control value of 50% or less) | H (H shows the control value of more than 50%) | – |
| Cc1cccc(Cl)c1-n1cc(Cl)c(=O)c(Br)c1-c1c(F)cc(F)cc1F [Compound 318] | – | – | – | – | – | Test C control value [1, 6]: H (H shows the control value of more than 50%); Test E control value [2, 7]: L (L shows the control value of 50% or less); Test B control value [3, 8]: L (L shows the control value of 50% or less); Test G control value ([4]; 250 ppm spray (2.5 ml/pot)): L (L shows the control value of 50% or less); Test D control value [5, 9]: L (L shows the control value of 50% or less) |
| CCc1ccccc1-n1cc(C)c(=O)c(C)c1-c1ccccc1 [Compound 516] | L (L shows the control value of 50% or less) | L (L shows the control value of 50% or less) | L (L shows the control value of 50% or less) | L (L shows the control value of 50% or less) | L (L shows the control value of 50% or less) | – |
| C=Cc1cn(-c2ccccc2C)c(-c2c(F)cc(F)cc2F)c(C)c1=O [Compound 340] | – | – | – | – | – | Test C control value [1, 6]: H (H shows the control value of more than 50%); Test E control value [2, 7]: H (H shows the control value of more than 50%); Test B control value [3, 8]: H (H shows the control value of more than 50%); Test G control value ([4]; 250 ppm spray (2.5 ml/pot)): L (L shows the control value of 50% or less); Test D control value [5, 9]: H (H shows the control value of more than 50%) |
| CCc1c(-c2c(F)cc(OC)cc2F)n(-c2ccccc2C)cc(C)c1=O [Compound 311] | – | – | – | – | – | Test C control value [1, 6]: H (H shows the control value of more than 50%); Test E control value [2, 7]: H (H shows the control value of more than 50%); Test B control value [3, 8]: H (H shows the control value of more than 50%); Test G control value ([4]; 250 ppm spray (2.5 ml/pot)): H (H shows the control value of more than 50%); Test D control value [5, 9]: H (H shows the control value of more than 50%) |
| Cc1c(F)cccc1-n1cc(Br)c(=O)c(Cl)c1-c1ccccc1 [Compound 413] | L (L shows the control value of 50% or less) | H (H shows the control value of more than 50%) | H (H shows the control value of more than 50%) | L (L shows the control value of 50% or less) | L (L shows the control value of 50% or less) | – |
| CCc1c(-c2c(F)cc(F)cc2F)n(-c2cc(Cl)ccc2C)cc(C)c1=O [Compound 570] | H (H shows the control value of more than 50%) | H (H shows the control value of more than 50%) | H (H shows the control value of more than 50%) | L (L shows the control value of 50% or less) | H (H shows the control value of more than 50%) | – |
| CCc1c(-c2ccccc2)n(-c2ccccc2Cl)cc(Br)c1=O [Compound 535] | H (H shows the control value of more than 50%) | H (H shows the control value of more than 50%) | H (H shows the control value of more than 50%) | L (L shows the control value of 50% or less) | L (L shows the control value of 50% or less) | – |
| COc1cc(F)c(-c2c(Cl)c(=O)c(Br)cn2-c2ccon2)c(F)c1 [Compound 131] | – | – | – | – | – | Test C control value class (cabbage Alternaria sooty spot) [1, 6]: H (H shows the control value of more than 50%); Test E control value class (wheat brown rust) [2, 7]: H (H shows the control value of more than 50%); Test B control value class (tomato gray mold) [3, 8]: H (H shows the control value of more than 50%); Test G control value class (grape downy mildew) ([4]; 250 ppm spray): L (L shows the control value of 50% or less); Test D control value class (barley powdery mildew) [5, 9]: L (L shows the control value of 50% or less) |
| O=c1c(Cl)cn(-c2cccnc2Cl)c(-c2c(F)cc(F)cc2F)c1Cl [Compound 35] | – | – | – | – | – | Test C control value class (cabbage Alternaria sooty spot) [1, 6]: H (H shows the control value of more than 50%); Test E control value class (wheat brown rust) [2, 7]: H (H shows the control value of more than 50%); Test B control value class (tomato gray mold) [3, 8]: H (H shows the control value of more than 50%); Test G control value class (grape downy mildew) ([4]; 250 ppm spray): H (H shows the control value of more than 50%); Test D control value class (barley powdery mildew) [5, 9]: H (H shows the control value of more than 50%) |
| Cc1ccc(C)c(-n2cc(C)c(=O)c(C)c2-c2c(F)cc(F)cc2F)c1 [Compound 390] | H (H shows the control value of more than 50%) | H (H shows the control value of more than 50%) | H (H shows the control value of more than 50%) | L (L shows the control value of 50% or less) | H (H shows the control value of more than 50%) | – |
| COc1ccc(C)c(-n2cc(Cl)c(=O)c(Br)c2-c2c(F)cc(F)cc2F)c1 [Compound 228] | – | – | – | – | – | Test C control value [1, 6]: H (H shows the control value of more than 50%); Test E control value [2, 7]: H (H shows the control value of more than 50%); Test B control value [3, 8]: H (H shows the control value of more than 50%); Test G control value ([4]; 250 ppm spray (2.5 ml/pot)): H (H shows the control value of more than 50%); Test D control value [5, 9]: H (H shows the control value of more than 50%) |
| CCCc1ccccc1-n1cc(C)c(=O)c(C)c1-c1c(F)cc(F)cc1F [Compound 445] | H (H shows the control value of more than 50%) | H (H shows the control value of more than 50%) | H (H shows the control value of more than 50%) | H (H shows the control value of more than 50%) | H (H shows the control value of more than 50%) | – |
| Cc1c(-c2ccc(F)cc2F)n(-c2ccccc2)cc(I)c1=O [Compound 593] | H (H shows the control value of more than 50%) | L (L shows the control value of 50% or less) | H (H shows the control value of more than 50%) | L (L shows the control value of 50% or less) | L (L shows the control value of 50% or less) | – |
| Cc1c(Br)cccc1-n1cc(C)c(=O)c(C)c1-c1c(F)cccc1F [Compound 496] | H (H shows the control value of more than 50%) | H (H shows the control value of more than 50%) | H (H shows the control value of more than 50%) | L (L shows the control value of 50% or less) | H (H shows the control value of more than 50%) | – |
| CC(C)c1ccccc1-n1cc(Br)c(=O)c(Cl)c1-c1c(F)cc(F)cc1F [Compound 393] | H (H shows the control value of more than 50%) | H (H shows the control value of more than 50%) | H (H shows the control value of more than 50%) | H (H shows the control value of more than 50%) | H (H shows the control value of more than 50%) | – |
